Test results: paper PMC3877284
Residue numbers refer to the chain shown, from its start. Read-outs that look alike come from different tables or passages of the source. No constants are given. Whether binding was seen depends on the method and setting. In cells and extracts the contact can be indirect. Some results given as binding are weak or reduced against the parent protein; the word gives no strength. For some of these results: Tags and fused reporters may be left off the sequences shown. Blank lines part the entries; values can stand above or below the molecule they belong to.

Protein sequences, listed by entry. Tags and fused reporters are not part of them.
UniProt P35222: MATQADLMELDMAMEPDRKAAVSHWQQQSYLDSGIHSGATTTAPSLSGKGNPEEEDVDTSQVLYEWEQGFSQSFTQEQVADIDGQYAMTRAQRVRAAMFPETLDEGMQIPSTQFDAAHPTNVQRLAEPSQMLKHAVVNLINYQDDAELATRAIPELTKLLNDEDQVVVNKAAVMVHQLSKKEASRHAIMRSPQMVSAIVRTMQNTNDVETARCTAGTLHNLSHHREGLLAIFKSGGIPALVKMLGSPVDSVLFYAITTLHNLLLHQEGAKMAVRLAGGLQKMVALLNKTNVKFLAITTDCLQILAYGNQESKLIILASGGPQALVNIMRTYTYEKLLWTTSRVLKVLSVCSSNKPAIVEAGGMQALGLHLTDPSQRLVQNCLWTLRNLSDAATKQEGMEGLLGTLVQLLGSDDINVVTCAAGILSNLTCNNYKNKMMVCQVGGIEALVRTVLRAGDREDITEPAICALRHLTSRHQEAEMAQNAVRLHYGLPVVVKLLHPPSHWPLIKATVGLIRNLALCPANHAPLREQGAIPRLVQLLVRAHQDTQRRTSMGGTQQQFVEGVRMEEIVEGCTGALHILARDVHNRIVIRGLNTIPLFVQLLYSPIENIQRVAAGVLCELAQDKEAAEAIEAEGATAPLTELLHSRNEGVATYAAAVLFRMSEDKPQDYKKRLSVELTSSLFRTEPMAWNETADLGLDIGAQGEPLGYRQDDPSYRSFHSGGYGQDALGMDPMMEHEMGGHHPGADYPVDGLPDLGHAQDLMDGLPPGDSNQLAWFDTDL

Assays:
[1] = molecular target: T1, flotillin-2 (human (endogenous in MCF10A, MCF7, HaCaT, Hep3B, HeLa)) (UniProt Q14254); experiment: co-IP; IP with antibodies against flotillin-2 and flotillin-1 from MCF7 cells grown confluent for 5 days; 750 µg total protein
T1 sequence: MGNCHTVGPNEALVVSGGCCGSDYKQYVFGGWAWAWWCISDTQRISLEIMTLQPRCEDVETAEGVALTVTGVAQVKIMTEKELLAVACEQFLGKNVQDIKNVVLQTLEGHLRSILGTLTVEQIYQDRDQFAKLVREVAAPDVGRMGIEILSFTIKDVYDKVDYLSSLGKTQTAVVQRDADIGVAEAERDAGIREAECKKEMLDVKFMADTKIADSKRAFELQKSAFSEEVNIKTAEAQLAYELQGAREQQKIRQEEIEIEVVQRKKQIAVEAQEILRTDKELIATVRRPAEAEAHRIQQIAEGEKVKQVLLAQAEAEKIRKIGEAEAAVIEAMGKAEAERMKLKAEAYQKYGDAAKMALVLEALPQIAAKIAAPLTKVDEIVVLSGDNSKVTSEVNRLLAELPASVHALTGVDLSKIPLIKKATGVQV

[2] = molecular target: T2, flotillin-1-GST (rat) (UniProt Q9Z1E1); experiment: pull-down; indirect GST pulldown: 5 µg GST-tagged protein on glutathione sepharose beads with MCF10A lysate (1.2-1.25 mg total protein; also lysates of flotillin-1 or flotillin-2 knockdown MCF10A cells), over night at 4°C; 10 mM Tris-HCl pH 8.0, 150 mM NaCl, 5 mM EDTA, 0.5% Triton X-100, 60 mM N-octylglucoside; only the target purified
T2 sequence: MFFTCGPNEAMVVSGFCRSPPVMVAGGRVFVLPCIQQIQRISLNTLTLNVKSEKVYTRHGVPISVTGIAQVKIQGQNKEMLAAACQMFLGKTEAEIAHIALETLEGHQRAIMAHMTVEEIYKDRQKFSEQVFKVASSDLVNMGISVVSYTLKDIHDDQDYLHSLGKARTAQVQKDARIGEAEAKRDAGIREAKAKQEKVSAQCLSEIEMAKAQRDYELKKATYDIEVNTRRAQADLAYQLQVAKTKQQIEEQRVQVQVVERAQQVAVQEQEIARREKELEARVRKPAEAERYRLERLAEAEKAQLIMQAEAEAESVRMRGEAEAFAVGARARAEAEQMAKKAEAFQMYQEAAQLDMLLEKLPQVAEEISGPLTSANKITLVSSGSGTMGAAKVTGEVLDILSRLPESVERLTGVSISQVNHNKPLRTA

[3] = molecular target: T3, flotillin-2-GST (rat) (UniProt Q9Z2S9); experiment: as above
T3 sequence: T1 sequence with A372S, K422N, V426A

[4] = molecular target: T1, flotillin-2 (human (endogenous in MCF10A, MCF7, HaCaT, Hep3B, HeLa)); experiment: co-IP; IP with flotillin-1 or flotillin-2 antibodies from MCF7, HaCaT, Hep3B and HeLa lysates; 750 µg total protein
[5] = molecular target: T1, flotillin-2 (human (endogenous in MCF10A, MCF7, HaCaT, Hep3B, HeLa)); experiment: co-IP; IP with polyclonal flotillin-1 or flotillin-2 antibody on Dynabeads protein A from lysate of MCF10A cells grown confluent for 5 days; 750 µg total protein; 10 mM Tris-HCl pH 8.0, 150 mM NaCl, 5 mM EDTA, 0.5% Triton X-100, 60 mM N-octylglucoside
[6] = molecular target: T2, flotillin-1-GST (rat); experiment: pull-down; indirect GST pulldown: 5 µg GST-tagged protein on glutathione sepharose beads with MCF10A lysate (1.2-1.25 mg total protein; also lysates of flotillin-1 or flotillin-2 knockdown MCF10A cells), over night at 4°C; 10 mM Tris-HCl pH 8.0, 150 mM NaCl, 5 mM EDTA, 0.5% Triton X-100, 60 mM N-octylglucoside; only the target purified; remark: listed apart in the source
[7] = molecular target: T3, flotillin-2-GST (rat); experiment: as above; remark: listed apart in the source
[8] = molecular target: T4, flotillin-1 (human (endogenous in MCF10A, MCF7, HaCaT, Hep3B, HeLa)) (UniProt O75955); experiment: co-IP; IP with antibodies against flotillin-2 and flotillin-1 from MCF7 cells grown confluent for 5 days; 750 µg total protein
T4 sequence: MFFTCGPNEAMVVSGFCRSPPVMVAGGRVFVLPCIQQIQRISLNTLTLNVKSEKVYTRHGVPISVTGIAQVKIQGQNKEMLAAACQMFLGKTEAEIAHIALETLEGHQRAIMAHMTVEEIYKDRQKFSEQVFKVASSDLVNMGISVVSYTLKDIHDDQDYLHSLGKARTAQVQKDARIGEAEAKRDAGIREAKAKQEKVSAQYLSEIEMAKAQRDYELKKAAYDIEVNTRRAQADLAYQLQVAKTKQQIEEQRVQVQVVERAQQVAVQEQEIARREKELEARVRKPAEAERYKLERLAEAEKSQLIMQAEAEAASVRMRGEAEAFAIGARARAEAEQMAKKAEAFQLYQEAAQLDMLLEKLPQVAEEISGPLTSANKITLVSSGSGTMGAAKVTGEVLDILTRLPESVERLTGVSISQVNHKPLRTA

- binding [1]: binds weakly
- binding [2]: binds weakly
- binding [3]: no binding
Molecule: β-catenin (from UniProt P35222 1-781)

- binding [4]: binds
- binding [1]: binds
- binding [5]: binds
- binding [6]: binds
- binding [7]: binds
B1: γ-catenin (protein, UniProt P14923 1-745)
chain: MEVMNLMEQPIKVTEWQQTYTYDSGIHSGANTCVPSVSSKGIMEEDEACGRQYTLKKTTTYTQGVPPSQGDLEYQMSTTARAKRVREAMCPGVSGEDSSLLLATQVEGQATNLQRLAEPSQLLKSAIVHLINYQDDAELATRALPELTKLLNDEDPVVVTKAAMIVNQLSKKEASRRALMGSPQLVAAVVRTMQNTSDLDTARCTTSILHNLSHHREGLLAIFKSGGIPALVRMLSSPVESVLFYAITTLHNLLLYQEGAKMAVRLADGLQKMVPLLNKNNPKFLAITTDCLQLLAYGNQESKLIILANGGPQALVQIMRNYSYEKLLWTTSRVLKVLSVCPSNKPAIVEAGGMQALGKHLTSNSPRLVQNCLWTLRNLSDVATKQEGLESVLKILVNQLSVDDVNVLTCATGTLSNLTCNNSKNKTLVTQNSGVEALIHAILRAGDKDDITEPAVCALRHLTSRHPEAEMAQNSVRLNYGIPAIVKLLNQPNQWPLVKATIGLIRNLALCPANHAPLQEAAVIPRLVQLLVKAHQDAQRHVAAGTQQPYTDGVRMEEIVEGCTGALHILARDPMNRMEIFRLNTIPLFVQLLYSSVENIQRVAAGVLCELAQDKEAADAIDAEGASAPLMELLHSRNEGTATYAAAVLFRISEDKNPDYRKRVSVELTNSLFKHDPAAWEAAQSMIPINEPYGDDMDATYRPMYSSDVPLDPLEMHMDMDGDYPIDTYSDGLRPPYPTADHMLA

- binding [8]: no binding
- binding [1]: binds weakly
B2: p120catenin (protein, UniProt O60716 1-968)
chain: MDDSEVESTASILASVKEQEAQFEKLTRALEEERRHVSAQLERVRVSPQDANPLMANGTLTRRHQNGRFVGDADLERQKFSDLKLNGPQDHSHLLYSTIPRMQEPGQIVETYTEEDPEGAMSVVSVETSDDGTTRRTETTVKKVVKTVTTRTVQPVAMGPDGLPVDASSVSNNYIQTLGRDFRKNGNGGPGPYVGQAGTATLPRNFHYPPDGYSRHYEDGYPGGSDNYGSLSRVTRIEERYRPSMEGYRAPSRQDVYGPQPQVRVGGSSVDLHRFHPEPYGLEDDQRSMGYDDLDYGMMSDYGTARRTGTPSDPRRRLRSYEDMIGEEVPSDQYYWAPLAQHERGSLASLDSLRKGGPPPPNWRQPELPEVIAMLGFRLDAVKSNAAAYLQHLCYRNDKVKTDVRKLKGIPVLVGLLDHPKKEVHLGACGALKNISFGRDQDNKIAIKNCDGVPALVRLLRKARDMDLTEVITGTLWNLSSHDSIKMEIVDHALHALTDEVIIPHSGWEREPNEDCKPRHIEWESVLTNTAGCLRNVSSERSEARRKLRECDGLVDALIFIVQAEIGQKDSDSKLVENCVCLLRNLSYQVHREIPQAERYQEAAPNVANNTGPHAASCFGAKKGKDEWFSRGKKPIEDPANDTVDFPKRTSPARGYELLFQPEVVRIYISLLKESKTPAILEASAGAIQNLCAGRWTYGRYIRSALRQEKALSAIADLLTNEHERVVKAASGALRNLAVDARNKELIGKHAIPNLVKNLPGGQQNSSWNFSEDTVISILNTINEVIAENLEAAKKLRETQGIEKLVLINKSGNRSEKEVRAAALVLQTIWGYKELRKPLEKEGWKKSDFQVNLNNASRSQSSHSYDDSTLPLIDRNQKSDKKPDREEIQMSNMGSNTKSLDNNYSTPNERGDHNRTLDRSGDLGDMEPLKGTTPLMQDEGQESLEEELDVLVLDDEGGQVSYPSMQKI
